# Measurements as given in PubChem BioAssay AID1963576 (National Center for Advancing Translational Sciences (NCATS), 2024).
# In all, about 46,000 compounds went through this assay and about 60 (0.1%) were called active. Not shown: some 3% with an inconclusive outcome. The call rests on the fitted dose curve; in most records, active means well fitted inhibition curve with a large enough effect; inconclusive means small, poorly fitted or top-dose-only effect; inactive means no such curve, though single readings can be large or run the other way. The list shows a part of the results.
# Test: Primary qHTS assay for Inhibitors of ovarian cancer metastasis using an organotypic tumor microenvironment (TME) model. Further: nearly all actives have a fitted effect of over 65% in size.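 On activity change, negative = inhibition: plate controls were DMSO wells for no effect and tomatine positive control wells for full effect.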
# Conditions: SKOV3ip1-GFP adhesion/invasion on 3D omental model, fluorescence; series mostly up to 45.8 µM; activity change, negative = inhibition: at the top concentration
# Outline: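 Adhesion/invasion was scored as fixed GFP-labeled SKOV3ip1 cell counts (488/509 nm), normalized to DMSO and tomatine controls. Cancer cells in serum-free medium, with four compound doses (0.36-46 umol/L), sat 2 hr at RT then 16 hr at 37 C on a 48 hr fibroblast/mesothelial/ECM culture.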
Structure (SMILES),"activity change, negative = inhibition",outcome
CCCCCCSc1nc(N)c2c3c(sc2n1)CCCC3C (stereo not drawn),inactive: 8.56%,
CCc1ccc2occ(CC(=O)Nc3c(C(=O)c4ccc(F)cc4)oc4ccccc34)c2c1,inactive: -13.5%,
COc1ccc(C)cc1NC(=O)Cn1c(=O)oc2cc(S(=O)(=O)N3CCCCCC3)ccc21,inactive: -6.95%,
CSc1cccc(Nc2cc(C(=O)NC3CCCCC3)c3ccccc3n2)c1,,inactive
Cn1cc(C=CC(=O)c2cccc(F)c2)cc1C=CC(=O)NO,inactive: -0.557%,
COc1cc2c(cc1OC)[C@@H]1Cc3ccc(OC)c(OC)c3CN1CC2,inactive: 9.54%,
Cc1cc(C)cc(N2C(=O)CSC23C(=O)N(CC(N)=O)c2ccccc23)c1 (stereo not drawn),,inactive
CCCN(CCC)c1cc(C)nc2nc(-c3ccc(C(C)(C)C)cc3)nn12,,inactive
CN(C)c1ccc(-c2nc3ccc(Cl)cn3c2Nc2ccc3c(c2)OCCO3)cc1,inactive: 16.8%,
Cn1nc(-c2ccccc2)c(-c2ccccc2)c(C(=O)Nc2ccccc2C(N)=O)c1=O,inactive: -4.46%,
CCC[C@@H](NC(=O)[C@@H]1[C@H]2CCC[C@@H]2CN1C(=O)[C@@H](NC(=O)[C@@H](NC(=O)c1cnccn1)C1CCCCC1)C(C)(C)C)C(=O)C(=O)NC1CC1,inactive: -8%,
CC(=O)N1CCc2cc(Br)cc(S(=O)(=O)CCC(=O)N3CCN(c4cccc(C)c4C)CC3)c21,inactive: -5.85%,
CCOC(=O)c1ccc(NC(=O)c2cc(=O)c3ccc(C)c(C)c3o2)cc1,inactive: -1.73%,
COCCN(Cc1ccc(C)c(Br)c1)S(=O)(=O)c1ccc2[nH]c(=O)ccc2c1,,inactive
CCOCCCNC(=O)Cn1ncc2c([nH]c3ccc(C)cc32)c1=O,inactive: -7.56%,
Cc1ccc(C)c(N2CCN(C3(c4ccccc4)C(=O)c4ccccc4C3=O)CC2)c1,inactive: -12.2%,
Cc1cccc(N2CCN(C(=O)c3cc4ccc5cccnc5c4[nH]3)CC2)c1C,,inactive
Cc1cccc(Cn2cc3c(=O)n(CC(=O)Nc4cccc(C)c4C)nc-3c3cc(F)ccc32)c1,inactive: -9.63%,
Cc1c(C(=O)Nc2cccc(C(F)(F)F)c2)sc2nc3n(c(=O)c12)CCC3,inactive: -7.34%,
CCCN(CCC)CCNC(=O)c1cc2c(=O)oc3ccc(C)cc3c2s1,inactive: 1.98%,
COc1ccc(NC(=O)c2cc(C3CC3)nc3c2c(C)nn3-c2ccccc2)c(OC)c1,inactive: 4.39%,
CC(C)Cc1nn2c(=O)cc(COC(=O)c3cccc(NC(=O)c4ccccc4)c3)nc2s1,,inactive
Cc1ccc(-n2ncc3c(Nc4ccc(Oc5ccccc5)cc4)ncnc32)cc1,inactive: -8.88%,
COCCn1c(C)cc(O)c(C(c2ccccc2)N2CCCCC2)c1=O (stereo not drawn),inactive: 72.1%,

Structure (SMILES),"activity change, negative = inhibition",outcome
CCc1ccccc1NC(=O)N1CCN(Cc2nc3ccc(C)cc3o2)CC1,,inactive
Cc1noc(C)c1S(=O)(=O)N(CC(=O)Nc1ccc(C(F)(F)F)cc1)c1ccc(C(C)C)cc1,,inactive
CCOc1ccc(/C=C/c2nc(C#N)c(NCc3ccc(OC)cc3)o2)cc1,inactive: 3.31%,
Clc1ccccc1CNCCCSc1nnnn1-c1ccccc1,inactive: -9.44%,
CCOCCCNC(=O)Cn1ncc2c([nH]c3ccccc32)c1=O,inactive: 5.31%,
O=C(NCc1ccc2c(c1)CCN2C(=O)c1ccc(F)cc1)c1c(F)cccc1F,inactive: 1.4%,
O=C(CCCN1CCC(O)(c2ccc(Cl)cc2)CC1)c1ccc(F)cc1,inactive: 17.1%,
CCOC(=O)N1CCN(Cc2nc3cc(NC(=O)CC(C)C)ccc3n2C(C)C)CC1,inactive: -0.648%,
COC(=O)c1ccc(NC(=O)C(=O)NCCc2csc3nc(-c4ccccc4F)nn23)cc1,inactive: -0.0121%,
CCN(CC)S(=O)(=O)c1ccc2c(c1)N(CC(=O)Nc1cccc(C)c1C)C(=O)C1CCCN21 (stereo not drawn),inactive: 3.93%,
CC1=C(C(=O)Nc2ccccc2)C(c2ccc(F)cc2)n2nc(SCc3cc(C)ccc3C)nc2N1 (stereo not drawn),inactive: 35.7%,
Nc1nonc1-c1nc2ccccc2n1CC(=O)Nc1cccc(C(F)(F)F)c1,inactive: -20.8%,
COc1ccc(C)cc1NC(=O)CSc1ncc2c(n1)-c1ccc(Cl)cc1N(Cc1ccccc1)S2(=O)=O,inactive: -1.64%,
Cc1ccc(NC(=O)CCN2C(=O)c3ccccc3Sc3ncccc32)cc1,inactive: 9.83%,
COc1cc(OC)c(NC(=O)C(CC(C)C)N2Cc3ccccc3C2=O)cc1Cl (stereo not drawn),inactive: -2.62%,
CCOc1ccccc1NC(=O)CSc1cn(CC(=O)N2CCCCCC2)c2ccccc12,inactive: -9.55%,
Cc1ccc2nc(Nc3cccc(C(F)(F)F)c3)c3nnnn3c2c1,,inactive
Cc1cc2oc(C(=O)Nc3sc4c(c3C(=O)NCC3CCCO3)CCCC4)cc(=O)c2cc1C (stereo not drawn),inactive: -7.85%,
Cc1ccc(C)c(N2CCN(C(=O)NCc3noc4ccccc34)CC2)c1,inactive: 6.58%,
CCS(=O)(=O)N1CCc2cc(C(=O)Nc3cc(C)cc(C)c3)ccc21,inactive: -3.39%,
COC(=O)c1ccc2c(c1)N(CC(=O)Nc1ccc(C)c(C)c1)C(=O)c1ccccc1S2,inactive: -0.437%,
CCCCN(CC)CCNC(=O)CN1C(=O)COc2ccc(S(=O)(=O)N3CCOCC3)cc21,inactive: -1.85%,
COc1ccc(OC)c(CCNc2nc3cc(OC)c(OC)cc3c3nc(-c4cccnc4)nn23)c1,inactive: 1.23%,
CCc1c(C)sc(NC(=O)c2cc(-c3ccc(OC)c(OC)c3)on2)c1C#N,inactive: 2.67%,
